From PubChem BioAssay AID1768 (National Center for Advancing Translational Sciences (NCATS), 2009)
Among all 270,000 compounds or so, about 620 (0.23%) were called active. Inconclusive results, whose numbers are uncertain, are shown with a selection of clear calls. Calls follow the shape of the dose curve; as a rule, active = well fitted inhibition curve with a large enough effect in the polarisation, with a control signal flat (not every such curve was filed as active); inconclusive = small, poorly fitted or top-dose-only effect, or effect the other way, or a change in a side signal; inactive = no such curve, though single readings can be large or run the other way; the % refers to the polarisation. Potencies of inconclusive entries are doubtful fits and often do not repeat. “Side channel” marks fits to a control or component signal instead of the main read-out.

Target: Menin (Homo sapiens) (UniProt O00255)
Test: qHTS Assay for Inhibitors Targeting the Menin-MLL Interaction in MLL Related Leukemias: Competition With Texas Red Labeled MLL-derived Mutant Peptide; as to FP activity change, negative = inhibition: % of control where 0% means no effect
Details: fluorescence polarization; FP activity change, negative = inhibition: at 61.6 µM (top of the series)
Potency is read from the fitted curve at half-maximal effect; tags tell the direction and shape of the fitted curve or compound fluorescence and quenching.

Sequence of UniProt O00255 (O00255 whole entry, looked up): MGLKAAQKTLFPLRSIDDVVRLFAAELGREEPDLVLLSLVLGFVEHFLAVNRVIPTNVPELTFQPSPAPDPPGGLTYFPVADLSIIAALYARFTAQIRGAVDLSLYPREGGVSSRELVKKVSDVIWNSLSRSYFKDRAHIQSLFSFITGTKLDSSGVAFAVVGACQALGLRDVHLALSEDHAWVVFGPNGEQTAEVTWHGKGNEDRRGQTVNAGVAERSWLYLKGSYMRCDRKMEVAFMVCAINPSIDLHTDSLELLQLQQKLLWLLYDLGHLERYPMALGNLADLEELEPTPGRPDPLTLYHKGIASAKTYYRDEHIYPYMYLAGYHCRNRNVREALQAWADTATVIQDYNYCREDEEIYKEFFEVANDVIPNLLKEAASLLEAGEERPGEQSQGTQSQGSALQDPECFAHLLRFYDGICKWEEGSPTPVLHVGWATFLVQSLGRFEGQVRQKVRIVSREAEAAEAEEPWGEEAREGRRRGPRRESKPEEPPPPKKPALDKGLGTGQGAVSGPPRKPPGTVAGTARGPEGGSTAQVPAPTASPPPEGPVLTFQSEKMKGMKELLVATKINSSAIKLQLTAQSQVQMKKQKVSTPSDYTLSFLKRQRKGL

Structure (SMILES)	Potency	FP activity change, negative = inhibition
CCc1ccc(CN(C)C(=O)c2cc(COc3cccc(C(F)(F)F)c3)on2)nc1	inconclusive: 6.31 µM [fluorescent, side channel, partial curve, poor fit]	
O=C(CN(Cc1ccccc1)S(=O)(=O)c1ccccc1)N/N=C/c1ccc([N+](=O)[O-])cc1	inconclusive: 20 µM [quencher, side channel, partial curve]	
CCOC(=O)c1ccc(NC(=O)Nc2ccc3c(c2)OCCO3)cc1	inconclusive: 20 µM [quencher, side channel, partial curve]	
Oc1ccc(N=Nc2nc(-c3ccccc3)c(-c3ccccc3)[nH]2)cc1	inconclusive: 25.1 µM [quencher, side channel, partial curve]	
COc1ccc(NC(=O)CC2C(=O)N(c3ccc(Cl)cc3)C(=S)N2NC(=O)c2cccc(F)c2)cc1 (centres undefined)	inconclusive: 25.1 µM [inhibitor, single point]	
CCOC(=O)C1(CCOC)CCN(C(=O)Cc2ccc3ccccc3c2)CC1	inconclusive: 10 µM [fluorescent, side channel, partial curve]	
CCn1c(/C=C/c2c(C)n(CC)c3ccccc23)nc2ccccc2c1=O	inconclusive: 35.5 µM [fluorescent, side channel, single point]	
Cc1ccccc1OCC(=O)NC(=S)Nc1ccc(N2CCOCC2)c(Cl)c1	inconclusive: 39.8 µM [inhibitor, single point]	
COc1ccc2c(c1)oc(=O)c1c3ccccc3[nH]c21	inconclusive: 3.55 µM [inhibitor, full curve, poor fit]	
CCOC(=O)c1[nH]c2ccc(OCC)cc2c1NC(=O)CN1CCN(c2ccccn2)CC1		inactive: 13.4%
COc1ccc(CN2CCCC(C(=O)N(C)Cc3ccccc3)C2)cc1OC (centres undefined)		inactive: 0.449%
Cc1cc(C)cc(NC(=O)c2cc(S(=O)(=O)N3CCCC3)cn2C)c1		inactive: 15.4%
O=C(COC(=O)CCC(=O)c1ccc(Cl)cc1)NCCc1ccccc1	inconclusive: 10 µM [fluorescent, side channel, partial curve]	
COc1ccc(Nc2nc(N3CCOCC3)nc(N3CCOCC3)n2)cc1	inconclusive: 6.31 µM [inhibitor, full curve]	
Cc1ccc(/C=N/NC(=O)c2nnn(-c3nonc3N)c2CN(C)C2CCCCC2)cc1	inconclusive: 22.4 µM [inhibitor, single point]	
CC1CCN(C(=O)C2Cc3ccccc3CN2S(=O)(=O)c2ccc(F)cc2)CC1 (centres undefined)	inconclusive: 8.91 µM [inhibitor, partial curve]	
O=C(COc1ccc(Br)cc1Cl)c1ccc[nH]1	inconclusive: 5.62 µM [quencher, side channel, partial curve]	
CNC(=S)NCCCCc1cnc[nH]1		inactive: 0.884%
O=C(Nc1cccc(C(F)(F)F)c1)Oc1ccc(Cl)c2cccnc12	inconclusive: 10 µM [quencher, side channel, partial curve]	
CC(=O)N1CCN(Cc2nc3scc(-c4ccccc4)c3c(=O)[nH]2)CC1	inconclusive: 39.8 µM [inhibitor, single point]	

Structure (SMILES)	Potency	FP activity change, negative = inhibition
N/C(=N/OC(=O)c1ccccc1F)c1nonc1N		inactive: 1.72%
CN(Cc1ccccc1)C(=O)CCSc1nc(-c2ccc3c(c2)OCO3)cc(C(F)(F)F)n1		inactive: 0.494%
O=c1c2ccccc2nc(COc2ccccc2)n1/N=C/c1cc([N+](=O)[O-])ccc1O	inconclusive: 3.16 µM [quencher, side channel, full curve]	
Cc1cc(Br)ccc1NC(=O)CCS(=O)(=O)c1cccc2nonc12	inconclusive: 39.8 µM [fluorescent, side channel, single point]	
COc1ccc(C2c3[nH]c4ccccc4c3C[C@H]3C(=O)N(C4CCN(Cc5ccccc5)CC4)CC(=O)N23)c(OC)c1 (some centres undefined)	inconclusive: 7.08 µM [fluorescent, side channel, partial curve, poor fit]	
Cc1ccc(NC(=O)CC(O)(C(F)(F)F)C(F)(F)F)cc1	inconclusive: 22.4 µM [quencher, side channel, single point]	
COc1cc(/C=N/Nc2ccccc2[N+](=O)[O-])cc(OC)c1O	inconclusive: 11.2 µM [quencher, side channel, partial curve]	
COCCNC(=O)CCc1c(C)nc2nc(-c3cc(OC)cc(OC)c3)nn2c1C	inconclusive: 39.8 µM [inhibitor, single point]	
Cc1ccc(-c2[nH]c3ccccc3c2C(C[N+](=O)[O-])c2ccco2)cc1 (centres undefined)	inconclusive: 2.51 µM [quencher, side channel, full curve]	
CCn1c2ccccc2c2cc(/C=N/n3cn[nH]c3=S)ccc21	inconclusive: 28.2 µM [quencher, side channel, partial curve]	
CC(C)(C)n1nnnc1C(c1ccncc1)N1CCN(c2ccc(O)cc2)CC1 (centres undefined)	inconclusive: 3.98 µM [inhibitor, partial curve]	
CC(=O)c1ccc(-n2cc(C#N)c(=O)[nH]c2=O)cc1	inconclusive: 31.6 µM [inhibitor, single point]	
CN1C2C=C3C(C#N)=C(N)C(C#N)(C#N)[C@H](c4c(F)cccc4F)[C@H]3C1CC2 (some centres undefined)	inconclusive: 3.55 µM [inhibitor, full curve]	
CCOc1ccc2nc(NC(=O)CSC3=NCCS3)sc2c1	inconclusive: 20 µM [quencher, side channel, partial curve]	
O=C(Nc1nccs1)c1ccc(N2C(=O)C3CCCCC3C2=O)cc1 (centres undefined)	inconclusive: 10 µM [quencher, side channel, partial curve]	
COc1ccc(-c2ccc(-c3nnc(-c4cc(OC)ccc4OC)o3)cc2)cc1		inactive: 2.11%
Cc1ccc(OCCOCCn2ccnc2)c(Br)c1	inconclusive: 3.55 µM [inhibitor, full curve, poor fit]	
CCCCCOc1ccc2oc(=O)c3c(c2c1)CCCN3C(=O)CN1CCCC(C(=O)OCC)C1 (centres undefined)	inconclusive: 8.91 µM [fluorescent, side channel, partial curve]	
O=C(Nc1cccc(-c2csc(Nc3ccccc3)n2)c1)c1cc([N+](=O)[O-])cc(C(F)(F)F)c1	inconclusive: 4.47 µM [quencher, side channel, full curve]	
CCC(CC)C(=O)Nc1ccc(C)c(O)c1	inconclusive: 39.8 µM [inhibitor, single point]	

Structure (SMILES)	Potency	FP activity change, negative = inhibition
CS(=O)(=O)N(CC(=O)NCC1CCCO1)c1cc(Cl)cc(Cl)c1 (centres undefined)	inconclusive: 10 µM [inhibitor, partial curve, poor fit]	
Cc1ccc2[nH]c(=O)c(-c3nc4ccccn4c3NCc3ccco3)cc2c1		inactive: -2.71%
COc1ccccc1N(CC(=O)N(CC(C)C)CC(C)C)S(=O)(=O)c1cccs1	inconclusive: 10 µM [fluorescent, side channel, partial curve]	
NC1=NC(=O)C(CC(=O)Nc2ccc3c(c2)OCO3)S1 (centres undefined)	inconclusive: 39.8 µM [quencher, side channel, single point]	
COc1cc(C)c(CN2CCC(Oc3ccc(C(=O)N4CCCC4)cc3)CC2)cc1C	inconclusive: 1.78 µM [fluorescent, side channel, full curve]	
Cc1nc(NC(=O)c2ccc(Cl)cc2)sc1-c1csc(Nc2cccc(F)c2)n1	inconclusive: 10 µM [quencher, side channel, partial curve]	
CCOC(=O)c1c(N)sc2c1CCSC2	inconclusive: 28.2 µM [quencher, side channel, single point]	
C[C@H]1/C=C\CC(=O)OC[C@H](C)C(=O)N2CCC[C@@H]2C(=O)OC1		inactive: 11.7% [at 11.7 µM]
COc1ccc(CCNc2ccc(N3C(=O)CC(C)C3=O)cc2[N+](=O)[O-])cc1 (centres undefined)	inconclusive: 17.8 µM [quencher, side channel, partial curve]	
CC1=CN2C(=N)/C(=C/c3ccco3)C(=O)N=C2S1		inactive: 6.33%
CCn1c(=O)[nH]c2cc(C(=O)Nc3cc(C)cc(C)c3)ccc2c1=O	inconclusive: 35.5 µM [fluorescent, single point]	
CCSC1=NCN(CCCC(=O)O)CN1	inconclusive: 39.8 µM [inhibitor, single point]	
CN(C)CCCn1cnc2c(c1=N)C(c1ccccc1)c1ccc3ccccc3c1O2 (centres undefined)	inconclusive: 17.8 µM [fluorescent, side channel, partial curve]	
Cc1cc(C(=O)CSc2nc3ccccc3c(=O)n2C)c(C)n1CC1CCCO1 (centres undefined)	inconclusive: 0.631 µM [inhibitor, full curve, poor fit]	
COc1cccc(CNc2ccc3c(c2)ncn3C)c1OC		inactive: -3.65%
c1csc(CNc2nc(-c3cccs3)nc3ccccc23)c1	inconclusive: 10 µM [quencher, side channel, partial curve]	
Cc1ccccc1OCCC(=O)Nc1ccc(F)c(Cl)c1	inconclusive: 11.2 µM [quencher, side channel, partial curve]	
O=C(Nc1ccccc1)c1ccc(S(=O)(=O)NCc2ccco2)cc1	inconclusive: 35.5 µM [quencher, side channel, single point]	
Cc1ccc(-c2cc(C(F)F)n3ncc(C(=O)N4CCN5CCCC5C4)c3n2)cc1 (centres undefined)	inconclusive: 2.82 µM [inhibitor, single point]	
